The list shows a part of the results.
Experiments:
Assay in all cases: glycan array binding signal (z-score within array); higher = stronger binding
Conditions in all cases: glycan notation: IUPAC condensed, linker removed
[1] = target: Neu5Ac(a2-6)Gal(b1-4)GlcNAc(b1-2)Man(a1-3)[Gal(b1-4)GlcNAc(b1-2)Man(a1-6)]Man(b1-4)GlcNAc(b1-4)GlcNAc
Method in brief: (§1)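 Glycan array data were curated from 3228 arrays in the Consortium for Functional Glycomics database and kept only where the protein sequence was available. Glycan names were converted to IUPAC-condensed notation, and columns mapping to the same glycan were averaged. The binding signal is a within-array Z-score, averaged across arrays of the same protein sequence at different concentrations or buffers and across linkers. Negative Z-scores can be read as non-binding.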

[2] = target: Neu5Ac(a2-6)Gal(b1-4)GlcNAc(b1-2)Man(a1-3)[GlcNAc(b1-2)Man(a1-6)]Man(b1-4)GlcNAc(b1-4)GlcNAc
Method in brief: as §1

[3] = target: Neu5Ac(a2-6)Gal(b1-4)GlcNAc(b1-2)Man(a1-3)[GlcNAc(b1-2)Man(b1-4)GlcNAc(b1-2)Man(a1-6)]Man(b1-4)GlcNAc(b1-4)GlcNAc
Method in brief: as §1

[4] = target: Neu5Ac(a2-6)Gal(b1-4)GlcNAc(b1-2)Man(a1-3)[Neu5Ac(a2-6)Gal(b1-4)GlcNAc(b1-2)Man(a1-6)]Man(b1-4)GlcNAc(b1-4)GlcNAc
Method in brief: as §1

[5] = target: Neu5Ac(a2-6)Gal(b1-4)GlcNAc(b1-2)Man(a1-6)[Gal(b1-4)GlcNAc(b1-2)Man(a1-3)]Man(b1-4)GlcNAc(b1-4)GlcNAc
Method in brief: as §1

[6] = target: Neu5Ac(a2-6)Gal(b1-4)GlcNAc(b1-2)Man(a1-6)[GlcNAc(b1-2)Man(a1-3)]Man(b1-4)GlcNAc(b1-4)GlcNAc
Method in brief: as §1

[7] = target: Neu5Ac(a2-6)Gal(b1-4)GlcNAc(b1-3)Gal(b1-4)GlcNAc
Method in brief: as §1

[8] = target: Neu5Ac(a2-6)Gal(b1-4)GlcNAc(b1-3)Gal(b1-4)[Fuc(a1-3)]GlcNAc(b1-3)Gal(b1-4)[Fuc(a1-3)]GlcNAc
Method in brief: as §1

[9] = target: Neu5Ac(a2-6)Gal(b1-4)GlcNAc6S
Method in brief: as §1

[10] = target: Neu5Ac(a2-6)GalNAc
Method in brief: as §1

[11] = target: Neu5Ac(a2-6)GalNAc(b1-4)GlcNAc
Method in brief: as §1

[12] = target: Neu5Ac(a2-8)Neu5Ac
Method in brief: as §1

[13] = target: Neu5Ac(a2-8)Neu5Ac(a2-3)Gal(b1-4)Glc
Method in brief: as §1

[14] = target: Neu5Ac(a2-8)Neu5Ac(a2-3)[GalNAc(b1-4)]Gal(b1-4)Glc
Method in brief: as §1

[15] = target: Neu5Ac(a2-8)Neu5Ac(a2-8)Neu5Ac
Method in brief: as §1

[16] = target: Neu5Ac(a2-8)Neu5Ac(a2-8)Neu5Ac(a2-3)Gal(b1-4)Glc
Method in brief: as §1

[17] = target: Neu5Ac(a2-8)Neu5Ac(a2-8)Neu5Ac(a2-3)[GalNAc(b1-4)]Gal(b1-4)Glc
Method in brief: as §1

[18] = target: Neu5Ac(a2-8)Neu5Ac(a2-8)Neu5Ac(a2-8)Neu5Ac(a2-3)[GalNAc(b1-4)]Gal(b1-4)Glc
Method in brief: as §1

[19] = target: Neu5Ac(b2-6)Gal(b1-4)GlcNAc
Method in brief: as §1

[20] = target: Neu5Ac(b2-6)GalNAc
Method in brief: as §1

[21] = target: Neu5Ac9Ac(a2-6)Gal(b1-4)GlcNAc
Method in brief: as §1

[22] = target: Neu5Gc(a2-3)Gal(b1-3)GlcNAc
Method in brief: as §1

[23] = target: Neu5Gc(a2-3)Gal(b1-3)[Fuc(a1-4)]GlcNAc
Method in brief: as §1

[24] = target: Neu5Gc(a2-3)Gal(b1-4)Glc
Method in brief: as §1

[25] = target: Neu5Gc(a2-3)Gal(b1-4)GlcNAc
Method in brief: as §1

[26] = target: Neu5Gc(a2-3)Gal(b1-4)[Fuc(a1-3)]GlcNAc
Method in brief: as §1

[27] = target: Neu5Gc(a2-6)Gal(b1-4)GlcNAc
Method in brief: as §1

[28] = target: Neu5Gc(a2-6)GalNAc
Method in brief: as §1

[29] = target: Neu5Gc(b2-6)Gal(b1-4)GlcNAc
Method in brief: as §1

B1: LSECtin (Homo sapiens), Q6UXB4 (protein)
chain: MEQESALRELRERVTQGLAEAGRGREDVRTELFRALEAVRLQNNSCEPCPTSWLSFEGSCYFFSVPKTTWAAAQDHCADASAHLVIVGGLDEQGFLTRNTRGRGYWLGLRAVRHLGKVQGYQWVDGVSLSFSHWNQGEPNDAWGRENCVMMLHTGLWNDAPCDSEKDGWICEKKAQLLTPPSALEPRPLQHVVSWGLLTSLAPGADCQRVFSSSSTAAESQKHLAQHSPVQPSAWALGPPCRPHPNSTHADPT
glycan array binding signal (z-score) [1]: 0.242 | glycan array binding signal (z-score) [2]: 5.63 | glycan array binding signal (z-score) [3]: -0.286 | glycan array binding signal (z-score) [4]: -0.251 | glycan array binding signal (z-score) [5]: -0.247 | glycan array binding signal (z-score) [6]: 5.21 | glycan array binding signal (z-score) [7]: -0.309 | glycan array binding signal (z-score) [8]: -0.25 | glycan array binding signal (z-score) [9]: -0.298 | glycan array binding signal (z-score) [10]: -0.302 | glycan array binding signal (z-score) [11]: -0.301 | glycan array binding signal (z-score) [12]: -0.296 | glycan array binding signal (z-score) [13]: -0.29 | glycan array binding signal (z-score) [14]: -0.251 | glycan array binding signal (z-score) [15]: -0.307 | glycan array binding signal (z-score) [16]: -0.308 | glycan array binding signal (z-score) [17]: -0.277 | glycan array binding signal (z-score) [18]: -0.284 | glycan array binding signal (z-score) [19]: -0.307 | glycan array binding signal (z-score) [20]: -0.311 | glycan array binding signal (z-score) [21]: -0.299 | glycan array binding signal (z-score) [22]: -0.301 | glycan array binding signal (z-score) [23]: -0.253 | glycan array binding signal (z-score) [24]: -0.3 | glycan array binding signal (z-score) [25]: -0.299 | glycan array binding signal (z-score) [26]: -0.303 | glycan array binding signal (z-score) [27]: -0.3 | glycan array binding signal (z-score) [28]: -0.283 | glycan array binding signal (z-score) [29]: -0.28

Reference: the supplement of paper PMC8728848
